The values below come from the supplement of paper PMC11417369.

This is one part of the list.

For the assay, the system named is PfAP2-HC AP2 domain (GST-tagged). As to the kind of experiment: gcPBM binding intensity (ln(normalized median fluorescence intensity)); higher = stronger DNA binding. The essentials:
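DNA-binding domains from P. falciparum, fused to GST and produced in E. coli, were put on an Agilent 4 × 180k double-stranded probe array for 1 h in 1× PBS holding 1% milk, 0.2 mg/ml BSA, 0.5% salmon testes DNA and 0.03% Triton X-100. Probes were primer-extended, 36 bp long and drawn from intergenic genomic regions, with negative controls included. After Alexa488 anti-GST antibody detection and a 488 nm scan, binding intensity was set as the highest Masliner-normalised natural-log median intensity across replicate spots of either probe orientation.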
As to “TAACTAAGGAATAATACACACAGAAATATATATTTA [CACACA_site344]”, the “gcPBM binding intensity (ln)” value worked out at 10.
For “GATGATGTTACTTAAGTGCATATAAATTATATTTTA [GTGCAC_site9940]”, the “gcPBM binding intensity (ln)” value was determined as 9.52.
For the sequence “AAATATATTATAAATTGTACGTTTATATATATTATT [XGTACX_site5110]”, the “gcPBM binding intensity (ln)” value was 9.58.
Turning to “TAAAGTTTTTTTTTAACACACACATAATAAAATAAA [CACACA_site8042]”, the “gcPBM binding intensity (ln)” value is 9.9.
With “TAAAAAAATAAAAAAAAAAAATTATAAAATTATATA [GTGCAC_negctrl_site302]” the figure was 9.4; with “GACACATATAAATATTAACACACATAATGAATTATA [CACACA_site8881]”, 9.93.
Under “TTATGTATTCATAACACATGCAAATAGGATCATATA [TGCATGCA_site731]” stands 9.58.
Under “CGTTAGAGGGCTTTATCACACATGAAAAAAAAAAAA [CACACA_site5155]” stands 9.24; under “CACACGCACAGACACACACACACATATAAATATGTA [CACACA_site6300]”, 10.6; under “ATATGATTTCACAAGACACACACATACAAATTTATA [CACACA_site9296]”, 10.1.
Regarding “TACAACATATTCAAATGTACAAATATAGGAATGAAA [XGTACX_site2730]”, the “gcPBM binding intensity (ln)” value is 9.79.
Turning to “AGCGTATTATACTGACGTACATTTTATGTAACTCCA [XGTACX_site2715]”, the “gcPBM binding intensity (ln)” value was 9.55.
In the case of “AACATAAAATGGATATGTACATAAAAATATATACTC [XGTACX_site7775]”, the “gcPBM binding intensity (ln)” value was found to be 10.1.
With “AAAATTAAAGTAAGGACACACATATATAATACATAT [CACACA_site823]” the figure was 9.99; with “TACACCAAAAAAAAACGTACAAAATCCCACCCAGAC [XGTACX_site4622]”, 11.1; with “AAAAAAAAAAAAAACACACACAAATTTAATATATAT [CACACA_site1695]”, 10.7.
Under “TATATATATAACAACACACACAGATCATAAAACTGC [CACACA_site2161]” stands 10.2.
With “TATATTTATTTTAACACACACATATATATATTATAT [CACACA_site4729]” the figure was 10; with “TCCCAAGGAGTAGGCACACATAAAATATTATACATA [CACACA_site717]”, 9.68; with “ATAAAAAAAAAAAAAAAATATATATATATATATATA [XGTACX_negctrl_site424]”, 9.37.
Consider “TTATTTTTATTATTTTGTATATATATTTATAGAAAA [XGTACX_negctrl_site465]”, for which the “gcPBM binding intensity (ln)” value stood at 9.28.
As to “TGTAATAACGTTATAAAAAGTATAAAAAAAAAAAAA [CACACA_negctrl_site943]”, the “gcPBM binding intensity (ln)” value was 9.57.
As to “TATATACTTTTTAATCACACTTCTTTAAAAAAAGTA [CACACA_negctrl_site1380]”, the “gcPBM binding intensity (ln)” value was found to be 9.28.
Take “TTTTAGGTCTGAATGTGTACTAAATAATATAAGTAT [XGTACX_site6554]”: the “gcPBM binding intensity (ln)” value was 9.53.
Under “TACCTAATATGTTATACACACATTAGAAGTACATAT [CACACA_site5375]” stands 9.78; under “CAAAATTTTTATAAGTCACACATTATCTAAGCTTAT [CACACA_site5747]”, 9.55; under “AATAAATAAATAAATTAATAAATTAATAAATTAATA [GTGCAC_negctrl_site37]”, 9.54.
With “CACACAAAGGAATATACACACATATTTATATTTATA [CACACA_site7841]” the figure was 9.91; with “ATCTATTTGTAAAGGGTGCGCATATCAATAAAAAAT [GTGCAC_site9503]”, 9.75; with “GTATATAATTTTTTATGTACTAAATTATATGTTTTT [XGTACX_site4907]”, 9.74.
Under “TATACCTTTGCGTGTGCATGCGCTTATATATATTTT [TGCATGCA_site152]” stands 10.1.
As for “TTTATGTGTATGTTTACACACATAAAAAAATATATG [CACACA_site3039]”, the “gcPBM binding intensity (ln)” value amounted to 9.72.
Under “TATTTTTAATATTTTGCATGCAGTATTTTATAAAAT [TGCATGCA_site250]” stands 9.52.
With “ACAATTCCCGTATGATGTACTTTTTTCCACTTTTTC [XGTACX_site1811]” the figure was 9.94; with “TACTAACATAAAGACACACACCACATAAAATAAATA [CACACA_site7663]”, 10.3; with CTTATTTTGTTATAAGTGCATTTTTTAAAATTTCTT, 9.55.
With “ATAGTATACAGACACACACACACACCGATATATATA [CACACA_site8511]” the figure was 10.7; with “GGAAGAAAACTTAGGTGTACATATAAAACGATATAA [XGTACX_site3118]”, 9.67; with “TATGAACACAGACACACACACAAAAAAAAAAAAAAA [CACACA_site7037]”, 9.9.
In the case of “ATTATCTTATGTTATTTATTTGTCCCACATTTGTTA [TGCATGCA_negctrl_site402]”, the “gcPBM binding intensity (ln)” value worked out at 9.73.
“CATACACCCAGACACACACACATATATATATATATA [CACACA_site634]”: the “gcPBM binding intensity (ln)” value came out at 10.4.
With TTTTTGTTATTATGTGTGCACATATATATATATATA the figure was 10.4; with “TATGTTATTATTTGTACACACACATATATATCCTTG [CACACA_site5910]”, 10.7.
With “AACAAATATCCCAAAAGTACACATATAAAAAAAAAA [XGTACX_site4126]” the figure was 9.79; with ATATATATATATATGGTGCATGAAAATTTACTTTGA, 9.66.
With “ATATACTCATTTAATACACACAAAGAGAAAATTAAT [CACACA_site1923]” the figure was 9.75; with “GATATTTGTTCATATACACACTTTTGATAAAATATG [CACACA_site4807]”, 9.71; with “TTTTTTTTTTTTGGTAGTACATAATATTAATATAAT [XGTACX_site4422]”, 9.5.
In the case of “TATATTTTCCTGCAAACACACATATAAATGGGTAGA [CACACA_site4451]”, the “gcPBM binding intensity (ln)” value is 9.61.
Consider “TTTATATAATTTTTTTGTACATATATATGAATACAT [XGTACX_site2316]”, for which the “gcPBM binding intensity (ln)” value came to 9.74.
Under “TAATTTTTTTTTTTTTTTCATTCTTTTCCTTTGATT [CACACA_negctrl_site1365]” stands 9.22; under “ATAGTACAACAGGTTCTTGACAAACAATATGAATGT [GTGCAC_negctrl_site442]”, 9.78.
As to “ACATATAAGATTATGTGTCCACAAAAAAATAAAACA [XGTACX_site2867]”, the “gcPBM binding intensity (ln)” value stood at 9.68.
Under “TTTTTAATAACACTTTTGAAAAATAAAATAAAATAA [CACACA_negctrl_site821]” stands 9.1.
Turning to “TTTTTTTATTATTCTTATATAAAAATTTTTTTTAAT [CACACA_negctrl_site159]”, the “gcPBM binding intensity (ln)” value came to 9.32.
Under “TTTTATGTTCTTAATGCACACTTATAAGTATCTTAT [CACACA_site4895]” stands 9.86.
For the sequence “CATATCTCAATTTATGCATGCAGGATTTTTCTAATA [TGCATGCA_site516]”, the “gcPBM binding intensity (ln)” value was 9.57.
Under “TTTTTTTTTTTTTGGTGTACATTTATAAAAAAAAAA [XGTACX_site8368]” stands 9.19; under “AATATGTACAGACATACACACATATATATATATATA [CACACA_site1222]”, 10.1.
For “TGATCAAATAAGTTTGCATGTCAACAATGCATATAT [TGCATGCA_site1025]”, the “gcPBM binding intensity (ln)” value was found to be 9.5.
Under “GAATTCCTTTGTGTATGTACATAATGATATTATTTT [XGTACX_site7369]” stands 9.84.
With “CCCCTTGTGGATTCTACACACAAAAAGTCGTCAAAA [CACACA_site821]”, the “gcPBM binding intensity (ln)” value was 9.74.
With “TAATTTTTTAAACACACACACATATATATATATATA [CACACA_site4230]” the figure was 10; with “TTATTCTTTTAATATACACACTTTGTCTTTTCGCGC [CACACA_site5525]”, 9.9.
Under “ATATATATAAAAGAAACAACATTTATTCAAAAGGTA [CACACA_negctrl_site749]” stands 9.72.
In the case of “TTTTAAATTTAGTGTAGTACACTTTTTTCAAATATA [XGTACX_site4659]”, the “gcPBM binding intensity (ln)” value was found to be 9.58.
Under “TACTTTTATAAAAATTTTATCAAATTCTATATATGT [TGCATGCA_negctrl_site308]” stands 9.64; under “ATATAATTCAAATACAGTACATATACAATATATACA [XGTACX_site1191]”, 9.63; under “AATAACAAAATAGGCACACGCACATATATATATATA [CACACA_site1497]”, 9.98.
With “TATTTTTCTTTTTAAAAATATATCACATGAACATTA [XGTACX_negctrl_site183]” the figure was 9.39; with “TACATATTTATATACACACACACACGGATATTTATA [CACACA_site7239]”, 11; with “GCACCCTGTATGAATGCACACATTCATAGAATTGCT [CACACA_site5475]”, 9.81.
“ATTCAAAAGATGTATACACACATGTGGATAATATAA [CACACA_site2443]”: the “gcPBM binding intensity (ln)” value is 9.92.
Regarding “TAAACAAAAAGGAAGAGTACTTGTAAAATTTGTAAA [XGTACX_site3003]”, the “gcPBM binding intensity (ln)” value was determined as 9.7.
Under “ATATACATATCATGTAGTACAATTTTTTTACTTTTT [XGTACX_site7988]” stands 9.58; under “CACTTTTTTTAAATGTGTACGTATATGAAAATATCA [XGTACX_site4854]”, 9.43.
As for “TAAAAAAATAAAATTACACACATATATAGATATATA [CACACA_site7273]”, the “gcPBM binding intensity (ln)” value is 9.74.
As for “TTATATTTCTTGAAGGGTACATACCATTATTTTTAA [XGTACX_site1159]”, the “gcPBM binding intensity (ln)” value is 9.57.
Under “ATATATTTATATATTACACACAATATTGGAGACATA [CACACA_site931]” stands 9.76; under “AGAAAACTCGCTTTTCTAAATCTCAAAAAAAAAAAA [XGTACX_negctrl_site94]”, 9.25.
On to “ATACATATATTAGGATGTACGTTTATTTTAGTTATT [XGTACX_site7169]”, for which the “gcPBM binding intensity (ln)” value was determined as 9.72.
Turning to “ACAAAAAAAAATATGTTAACTATATATATATATATA [CACACA_negctrl_site346]”, the “gcPBM binding intensity (ln)” value came out at 9.65.
For the sequence “AATTGGGAACTGTAATGTACATATATTGAAAGTATA [XGTACX_site7081]”, the “gcPBM binding intensity (ln)” value was found to be 9.65.
Under “TATTTATTTGTACATATACACACTTAAATATGTTTA [CACACA_site3902]” stands 9.87; under “TAATTAACCTATGCATTCATATAGATACATAAATAT [CACACA_negctrl_site885]”, 9.5.
Under “GTTTCTATTCACATTTTACACACGTCCATCGCATTT [CACACA_site9142]” stands 10.2.
Under “TTTTGTTGTATGATAATTCTTTTATCAATATGTCTT [TGCATGCA_negctrl_site567]” stands 9.63.
As to “ACCAAATTATCAAATGGTACACATAAAATAATAAAA [XGTACX_site865]”, the “gcPBM binding intensity (ln)” value amounted to 9.68.
